The source of these data is the supplement of paper PMC9135407.

The test system of the assay is primary human hepatic stellate cells (donor 1). The assay can be described thus: scaled lipid accumulation score (0 = DMSO-like, 1 = nortriptyline-like); higher = stronger HSC inactivation (lipid re-accumulation), active = hit call of the paper. To be noted: 48 h.
The mark [1] stands for this setting: library stock concentration: 10 mM.
[2] abbreviates: library stock concentration: 80 uM.
Setting [3] is: library stock concentration: 400 uM.
[4] abbreviates: library stock concentration: 2 mM.
Setting [5] is: library stock concentration: 1 mM.
The mark [6] stands for this setting: library stock concentration: 3.33 mM.

Values joined by “and” are separate entries in the source; they are usually repeats but may differ in a detail not shown here. Equal values may be shown once. Where a name gives a salt, the structure may show the parent alone. About 620 (11%) of roughly 5,800 compounds showed activity.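 The calls were made as follows: active = score above a cut-off or among the top three wells of a plate; in these data no inactive exceeds 0.85.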 Only a part is listed here, and it is no random draw.

Turning to `CC1CCN=C(N)S1` (centres undefined), under setting [1], the “scaled lipid accumulation score” value is inactive: ≤ 0. Still for that read-out and setting: the same measure for `CC1CCN=C(N)S1` (centres undefined) [AMT hydrochloride]: inactive: 0.018. Regarding `OC1CCC(Nc2ncc3nc(Nc4c(F)cc(F)cc4F)n([C@@H]4CCOC4)c3n2)CC1` (some centres undefined), the “scaled lipid accumulation score” value reads like this: under setting [2], inactive: ≤ 0; under setting [3], inactive: ≤ 0; under setting [4], inactive: ≤ 0; under setting [1], inactive: ≤ 0.

As for `CCCCCCCCCCCCCCCC(=O)O` [Palmitic Acid], under setting [5], the “scaled lipid accumulation score” value is inactive: 0.033.

As for `N#C/C(=C\c1ccc(O)c(O)c1)C(=O)NCCCc1ccccc1`, under setting [1], the “scaled lipid accumulation score” value was inactive: ≤ 0. As for `C/C(=C\C(=O)OCCCCCCCCC(=O)O)C[C@@H]1OC[C@H](C[C@@H]2O[C@H]2[C@@H](C)[C@H](C)O)[C@@H](O)[C@H]1O` [Mupirocin], the “scaled lipid accumulation score” value was inactive: ≤ 0 under setting [6]; inactive: ≤ -0.001 and inactive: ≤ 0 under setting [1].

`O=C(O)c1cc(N(Cc2ccccc2O)Cc2cc(O)ccc2O)ccc1O` [Lavendustin A]: under “library stock concentration: 13.1 mM”, the “scaled lipid accumulation score” value is inactive: ≤ -0.007. As to `CCc1cccc(CC)c1NC(=O)CN(CC(=O)O)CC(=O)O` [Etifenin], the “scaled lipid accumulation score” value is inactive: 0.119. Consider `C=CC(=O)Nc1cc2c(Nc3ccc(F)c(Cl)c3)ncnc2cc1OCCCN1CCOCC1`, for which the “scaled lipid accumulation score” value under setting [1] is active: 0.983.

For `COc1ccc(C2=N[C@@H](c3ccc(Cl)cc3)[C@@H](c3ccc(Cl)cc3)N2C(=O)N2CCNC(=O)C2)c(OC(C)C)c1` [Nutlin-3], the “scaled lipid accumulation score” value is inactive: 0.168 under setting [6] and inactive: 0.829 under setting [1].

As to `COc1ccc(C2=N[C@@H](c3ccc(Cl)cc3)[C@@H](c3ccc(Cl)cc3)N2C(=O)N2CCNC(=O)C2)c(OC(C)C)c1`, the “scaled lipid accumulation score” value under setting [5] is inactive: ≤ 0. On to `c1ccc(C2CN3CCSC3=N2)cc1` (single isomer, unassigned; (-)) [(-)-Tetramisole hydrochloride], for which the “scaled lipid accumulation score” value under setting [1] is inactive: ≤ -0.055. Take `c1ccc(C2CN3CCSC3=N2)cc1` (single isomer, unassigned; (-)) [Tetramisole hydrochloride]: the “scaled lipid accumulation score” value was inactive: ≤ 0. Moreover, under setting [1], the “scaled lipid accumulation score” value is inactive: ≤ 0. As for `c1ccc(C2CN3CCSC3=N2)cc1` (single isomer, unassigned; (-)), the “scaled lipid accumulation score” value under setting [1] was inactive: ≤ 0. As to `CN/C(=N\CCSCc1nc[nH]c1C)NC#N` [Cimetidine], the “scaled lipid accumulation score” value was inactive: ≤ 0. Moreover, under setting [6], the “scaled lipid accumulation score” value was inactive: ≤ 0. Moreover, the “scaled lipid accumulation score” value (library stock concentration: 7.9 mM) is inactive: ≤ -0.006 and inactive: ≤ 0. In addition, the “scaled lipid accumulation score” value under setting [1] was inactive: ≤ 0 and inactive: 0.018 and inactive: 0.008.

Regarding `NC(=O)c1ccc(I)c([N+](=O)[O-])c1` [Iniparib], the “scaled lipid accumulation score” value by setting is: under setting [2], inactive: ≤ 0; under setting [3], inactive: ≤ 0; under setting [4], inactive: ≤ 0; under setting [1], inactive: ≤ 0.

With `NC(=O)c1ccc(I)c([N+](=O)[O-])c1` [Iniparib (BSI-201)], the “scaled lipid accumulation score” value by setting is: under setting [6], inactive: 0.016; under setting [1], inactive: ≤ 0.

`COC(=O)C[C@](O)(CCCC(C)(C)O)C(=O)O[C@@H]1C(OC)=C[C@]23CCCN2CCc2cc4c(cc2[C@H]13)OCO4` [Homoharringtonine]: the “scaled lipid accumulation score” value under setting [1] is active: 1.27. Turning to `O=C(O)c1cc2cc(Cc3cccnc3)ccc2o1` [Furegrelate (sodium salt)], the “scaled lipid accumulation score” value under setting [5] was inactive: ≤ 0.

On to `O=C(O)c1cc2cc(Cc3cccnc3)ccc2o1` [Furegrelate sodium], for which, under setting [1], the “scaled lipid accumulation score” value is inactive: ≤ -0.038 and inactive: ≤ 0. Regarding `C=C1c2cccc(O)c2C(O)=C2C(=O)[C@]3(O)C(O)=C(C(N)=O)C(=O)[C@@H](N(C)C)[C@@H]3[C@@H](O)[C@H]12` [Methacycline HCl], the “scaled lipid accumulation score” value by setting is: under setting [6], inactive: ≤ 0; under setting [1], inactive: ≤ 0. For the compound `C1[C@@H](N(C)[C@@H]2C1)C[C@@H](OC(c3ccccc3)c4ccccc4)C2.CS(O)(=O)=O` (some centres undefined) [Benztropine mesylate], the “scaled lipid accumulation score” value under setting [1] was active: 0.873. Same read-out and setting: the same measure for `O=C(O)c1cc(/N=N/c2ccc(S(=O)(=O)Nc3ccccn3)cc2)ccc1O`: inactive: 0.052. For the compound `O=C(O)c1cc(/N=N/c2ccc(S(=O)(=O)Nc3ccccn3)cc2)ccc1O` [Sulfasalazine], the “scaled lipid accumulation score” value was inactive: ≤ 0. Also, under setting [6], the “scaled lipid accumulation score” value was inactive: ≤ 0. For the same compound, where the note is “library stock concentration: 5 mM”, the “scaled lipid accumulation score” value was inactive: ≤ 0. The “scaled lipid accumulation score” value under setting [1] was inactive: ≤ 0. Take `CCCCCCCC/C=C/CCCCCCCC(=O)O` [Elaidic Acid]: under setting [5], the “scaled lipid accumulation score” value is inactive: ≤ 0.

With `COc1cc(/C=C/c2ccc(Cl)cc2)cc(OC)c1`, the “scaled lipid accumulation score” value under setting [5] was inactive: ≤ 0. As for `Nc1ncnc2c1ncn2C1OC(COP(=O)(O)O)C(O)C1O` (centres undefined) [Adenosine 5'-monophosphate monohydrate], the “scaled lipid accumulation score” value was inactive: 0.109. For `COc1cc2ncnc(-n3nc(-c4ccccn4)nc3N)c2cc1OC`, the “scaled lipid accumulation score” value runs as follows: under setting [2], inactive: ≤ 0; under setting [3], inactive: 0.052; under setting [4], inactive: 0.101; under setting [1], inactive: 0.046. As to `CCN(CC)CCOc1ccc2c(c1)C(=O)c1cc(OCCN(CC)CC)ccc1-2` [Tilorone], the “scaled lipid accumulation score” value under setting [1] is active: 0.879. Same read-out and setting: the same measure for `CCOC(=O)c1cnc2c(cnn2CC)c1NN=C(C)C` [Etazolate hydrochloride]: inactive: ≤ -0.07 and inactive: ≤ 0. For the compound `CCOC(=O)c1cnc2c(cnn2CC)c1NN=C(C)C` [Etazolate], the “scaled lipid accumulation score” value (library stock concentration: 6.9 mM) was inactive: ≤ 0. As for `CCOC(=O)[C@H](CCc1ccccc1)N[C@@H](C)C(=O)N1C(=O)N(C)C[C@H]1C(=O)O` [Imidapril HCl], the “scaled lipid accumulation score” value by setting is: under setting [6], inactive: ≤ 0; under setting [1], inactive: ≤ 0. `C[C@@H]1C[C@H]2[C@@H]3CCC4=CC(=O)C=C[C@]4(C)[C@@]3(Cl)[C@@H](O)C[C@]2(C)[C@@]1(OC(=O)c1ccco1)C(=O)CCl` [Mometasone furoate]: the “scaled lipid accumulation score” value was inactive: 0.136. For the same compound, the “scaled lipid accumulation score” value under setting [6] was inactive: 0.086. Moreover, the “scaled lipid accumulation score” value under setting [1] is inactive: 0.519. As for `CCC1(O)CC2CN(CCc3c([nH]c4ccccc34)[C@@](C(=O)OC)(c3cc4c(cc3OC)N(C)C3[C@]45CCN4CC=C[C@@](CC)([C@@H](OC(C)=O)[C@]3(O)C(=O)OC)[C@H]45)C2)C1.O=S(=O)(O)O` (some centres undefined) [Vinblastine sulfate salt], under setting [1], the “scaled lipid accumulation score” value was active: 0.877.

For `CCOc1ccc2nc(S(N)(=O)=O)sc2c1` [Ethoxzolamide], the “scaled lipid accumulation score” value (library stock concentration: 7.7 mM) was inactive: ≤ 0. For the compound `c1coc(CNc2ncnc3[nH]cnc23)c1` [Kinetin], the “scaled lipid accumulation score” value is, setting by setting: under setting [6], inactive: ≤ 0; under setting [1], inactive: ≤ 0. Consider `C[C@]12CCC3=C4CCC(=O)C=C4CC[C@H]3[C@@H]1CC[C@@]2(O)CC#N` [Dienogest], for which the “scaled lipid accumulation score” value under setting [6] is inactive: ≤ 0 and the “scaled lipid accumulation score” value under setting [1] is inactive: ≤ 0. For the compound `CN1CCN(CCCN2c3ccccc3Sc3ccc(C(F)(F)F)cc32)CC1.Cl.Cl` [Trifluoperazine], the “scaled lipid accumulation score” value (library stock concentration: 10.4 mM) is active: 0.892.

`CCCCc1ccc2[nH]c(NC(=O)OC)nc2c1` [Parbendazole]: the “scaled lipid accumulation score” value was inactive: ≤ 0. As to `COc1cc2ncnc(Nc3cccc(Cl)c3)c2cc1OC` [AG-1478 (Tyrphostin AG-1478)], under setting [6], the “scaled lipid accumulation score” value was inactive: ≤ 0.

With `COc1cc2ncnc(Nc3cccc(Cl)c3)c2cc1OC`, the “scaled lipid accumulation score” value reads like this: under setting [2], inactive: ≤ -0.016; under setting [3], inactive: ≤ -0.016; under setting [4], inactive: ≤ -0.016; under setting [6], inactive: ≤ 0; under setting [1], inactive: 0.749; (library stock concentration: 14.2 mM) inactive: 0.452. Turning to `NC(=O)Nc1cc(-c2cccc(F)c2)sc1C(=O)N[C@H]1CCCNC1`, the “scaled lipid accumulation score” value under setting [6] is active: 0.879.

As for `O=c1oc2cc(O)ccc2s1` [Tioxolone], the “scaled lipid accumulation score” value is inactive: ≤ 0 under setting [6]; inactive: ≤ 0 and inactive: ≤ -0.027 under setting [1]. For `Nc1ccccc1NC(=O)c1ccc(CNc2nccc(-c3cccnc3)n2)cc1` [Mocetinostat (MGCD0103)], under setting [6], the “scaled lipid accumulation score” value is active: 0.974.

For the compound `CC1/C=C/C=C/C=C/C=C/C=C/C=C/C=C/C(OC2O[C@H](C)[C@@H](O)[C@H](N)[C@@H]2O)CC(O)C(C(=O)O)C(O)CC(=O)CC(O)CC(O)CC(O)CC(=O)CCCC(=O)CC(=O)OC1C(C)CC(C)C(O)CC(=O)c1ccc(N)cc1` (some centres undefined), the “scaled lipid accumulation score” value under setting [1] is inactive: ≤ 0. The same measure, in the same setting: the same measure for `O=C1C(Cl)=C(NCCN2CCOCC2)C(=O)c2ncccc21`: active: 1.04.

With `CC(C)=CCC/C(C)=C/CC/C(C)=C/CC[C@]1(C)CCc2cc(O)c(C)c(C)c2O1` [.gamma.-Tocotrienol], under setting [5], the “scaled lipid accumulation score” value is inactive: ≤ 0. Turning to `CCCCC/C=C\C/C=C\C/C=C\C/C=C\CCCC(=O)O[C@@H](CO)COCCCCCCCCCCCCCCCC` [1-Hexadecyl-2-arachidonoyl-glycerol], the “scaled lipid accumulation score” value under setting [5] was inactive: 0.044. With `CC=CC1=C(C(=O)O)N2C(=O)[C@@H](NC(=O)[C@H](N)c3ccc(O)cc3)[C@H]2SC1` [Cefprozil], the “scaled lipid accumulation score” value by setting is: (library stock concentration: 5.1 mM) inactive: ≤ 0; under setting [1], inactive: ≤ 0. As for `Nc1nc(OCC2CCCCC2)c2[nH]cnc2n1`, the “scaled lipid accumulation score” value under setting [1] was inactive: ≤ -0.055.

As to `CCn1c(-c2nonc2N)nc2c(C#CC(C)(C)O)ncc(OC[C@H]3CCCNC3)c21`, the “scaled lipid accumulation score” value under setting [2] is inactive: ≤ -0.008; the “scaled lipid accumulation score” value under setting [3] is inactive: ≤ -0.009 and inactive: ≤ -0.005; the “scaled lipid accumulation score” value under setting [4] was inactive: ≤ -0.009 and inactive: ≤ -0.005; the “scaled lipid accumulation score” value under setting [6] was inactive: 0.355; the “scaled lipid accumulation score” value under setting [1] was inactive: 0.482 and inactive: 0.613 and inactive: ≤ -0.005.

Turning to `NC(=O)CC[C@H](N)C(=O)O`, the “scaled lipid accumulation score” value under setting [1] is inactive: 0.123. As to `NC(=O)CC[C@H](N)C(=O)O` [L-Glutamine], under setting [1], the “scaled lipid accumulation score” value was inactive: ≤ -0.07. As for `O=C1c2ccccc2C(=O)C1c1ccc(Br)cc1` [Bromindione], the “scaled lipid accumulation score” value (library stock concentration: 6.6 mM) was inactive: ≤ 0. As for `CCN(CC)CCOc1ccc(Nc2ncc3cc(-c4c(Cl)cccc4Cl)c(=O)n(C)c3n2)cc1`, the “scaled lipid accumulation score” value under setting [1] was inactive: 0.416. On to `CCCCC/C=C\C/C=C\C/C=C\CCCCCCC(=O)O` [Dihomo-.gamma.-Linolenic Acid], for which the “scaled lipid accumulation score” value under setting [5] was inactive: 0.003. On the same count and under the same terms, the same measure for `CCCCC/C=C\C/C=C\C/C=C\CCCCCCC(=O)O` [Dihomo-gamma-linolenic acid]: inactive: ≤ -0.021. Regarding `CN(C)CCCN1c2ccccc2CCc2ccc(Cl)cc21.Cl` [Clomipramine hydrochloride], under setting [1], the “scaled lipid accumulation score” value is active: 1.31. Turning to `CN1C(=O)C(Cc2c[nH]c3ccccc23)NC1=S` (centres undefined) [Necrostatin-1], the “scaled lipid accumulation score” value is inactive: 0.008 under setting [2]; inactive: ≤ 0 under setting [3]; inactive: ≤ 0 under setting [4]; inactive: ≤ -0.009 and inactive: ≤ 0 under setting [6]; inactive: ≤ 0 and inactive: 0.03 under setting [1].
